This is one part of the list. The full chains were built here from the parent and the listed change. Values near 0.05 are background.
B1: TEV protease; numbered along this chain (parent)
chain: MGESLFKGPRDYNPISSSICHLTNESDGHTTSLYGIGFGPFIITNKHLFRRNNGTLVVQSLHGVFKVKDTTTLQQHLVDGRDMIIIRMPKDFPPFPQKLKFREPQREERICLVTTNFQTKSMSSMVSDTSCTFPSGDGIFWKHWIQTKDGQCGSPLVSTRDGFIVGIHSASNFTNTNNYFTSVPKNFMELLTNQEAQQWVSGWRLNADSVLWGGHKVFMVKPEEPFQPVKEATQL

Variants of: B1
Assay: raw area under fraction-flipped curve 0-4 h after induction (AUC4h, not background-subtracted), DNA-recorder readout of cleavage of the substrate (dimensionless); higher = more cleavage of the substrate by the protease variant
Conditions: temperature: 34 °C; time window: 0-4 h after rhamnose induction
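Further: Bxb1 expression induced with 0.2% (w/v) L-rhamnose at OD600 near 0.5, cultures sampled hourly, flipped fraction per protease–substrate barcode pair counted by paired-end Illumina sequencing.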

Variant	area with substrate ENLYEQS	area with substrate ENLYHQS	area with substrate ENLYIQS	area with substrate ENLYKQS	area with substrate ENLYMQS	area with substrate ENLYNQS	area with substrate ENLYPQS	area with substrate ENLYQQS	area with substrate ENLYRQS	area with substrate ENLYTQS	area with substrate ENLYWQS	area with substrate ENLYGQS	area with substrate ENLYSQS	area with substrate ENLYVQS	area with substrate ENLYYQS
MGESLFKGPRDYNPISSSICHLTNESDGHTTSLYGIGFGPFIITNKHLFRRNNGTLVVQSLHGVFKVKDTTTLQQHLVDGRDMIIIRMPKDFPPFPQKLKFREPQREERICLVTTNFQTKSMSSMVSDTSCTFPSGDGIFWKHWIQTKDGQCGSPLVSTRDGFIVGIHSASNFTNTNNYFTSVPKNFMELLYNQEAQQWVSGWRLNADSVLWGGHKVFMVKPEEPFQPVKEATQL [T192Y]	0.0596	0.0875	0.108	0.0469	0.0604	0.0684	0.0734	0.0581	0.0471	0.0794	0.0814	–	–	–	–
MGESLFKGPRDYNPISSSICHLTNESDGHTTSLYGIGFGPFIITNKHLFRRNNGTLVVQSLHGVFKVKDTTTLQQHLVDGRDMIIIRMPKDFPPFPQKLKFREPQREERICLVTTNFQTKSMSSMVSDTSCTFPSGDGIFWKHWIQTKDGQCGSPLVSTRDGFIVGIHSASNFTNTNNYFTSVPKNFMELLTNQEAQVWVSGWRLNADSVLWGGHKVFMVKPEEPFQPVKEATQL [Q198V]	0.0649	0.0785	0.154	0.0583	–	0.0549	0.0679	0.095	0.0474	–	0.0583	0.0791	0.0779	–	–
MGESLFKGPRDYNPISSSICHLTNESDGHTTSLYGIGFGPFIITNKHLFRRNNGTLVVQSLHGVFKVKDTTTLQQHLVDGRDMIIIRMPKDFPPFPQKLKFREPQREERICLVTTNFQTKSMSSMVSDTSCTFPSGDGIFWKHWIQTKDGQCGSPLVSTRDGFIVGIHSASNFTNTNNYFTSVPKNFMELLTNQEAQQWVSGWRLNADSVLWGGHKVHMVKPEEPFQPVKEATQL [F218H]	0.133	0.0658	–	0.0664	–	0.0454	0.0568	0.0751	0.0657	0.0783	–	0.0723	0.0563	0.13	–
MGESLFKGPRDYNPISSSICHLTNESDGHTTSLYGIGFGPFIITNKHLFRRNNGTLVVQSLHGVFKVKDTTTLQQHLVDGRDMIIIRMPKDFPPFPQKLKFREPQREERICLVTTNFQTKSMSSMVSDTSCTFPSGDGIFWKHWIQTKDGQCGSPLVSTRDGFIVGIHSASNFTNTNNYFTSVPKNFMELLTNQEAQQWVSGWRLNADSVLWGGHKVFLVKPEEPFQPVKEATQL [M219L]	0.0549	0.0684	0.132	0.0298	0.0818	0.0557	0.104	–	–	–	0.081	–	–	–	–
MGESLFKGPRDYNPISSSICHLTNESDGHTTSLYGIGFGPFIITNKHLFRRNNGTLVVQSLHGVFKVKDTTTLQQHLVDGRDMIIIRMPKDFPPFPQKLKFREPQREERICLVTTNFQTKSMSSMVSDTSCTFPSGDGIFWKHWIQTKDGQCGSPLVSTRDGFIVGIHSASNFTNTNNYFTSVPKNFMELLTNQEAQQWVSGWRLNADSVLWGGHKVFMVKPEEWFQPVKEATQL [P225W]	0.0647	0.0417	0.103	0.102	0.0879	0.0507	0.0714	0.055	0.0561	0.0999	–	0.0587	0.0701	–	–
MGESLFKGPRDYNPISSSICHLTNESDGHTTSLYGIGFGPFIITNKHLFRRNNGTLVVVSLHGVFKVKDTTTLQQHLVDGRDMIIIRMPKDFPPFPQKLKFREPQREERICLVTTNFQTKSMSSMVSDTSCTFPSGDGIFWKHWIQTKDGQCGSPLVSTRDGFIVGIHSASNFTNTNNYFTSVPKNFMELLTNQEAQQWVSGWRLNADSVLWGGHKVFMVKPEEPFQPVKEATQL [Q59V]	–	0.0834	0.101	0.0652	–	–	–	–	–	–	–	0.0668	–	0.115	0.0555
MGESLFKGPRDYNPISSSICHLTNESDGHTTSLYGIGFGPFIITNKHLFRRNNGTLVVQSLHGVFKVKDTTTLHQHLVDGRDMIIIRMPKDFPPFPQKLKFREPQREERICLVTTNFQTKSMSSMVSDTSCTFPSGDGIFWKHWIQTKDGQCGSPLVSTRDGFIVGIHSASNFTNTNNYFTSVPKNFMELLTNQEAQQWVSGWRLNADSVLWGGHKVFMVKPEEPFQPVKEATQL [Q74H]	–	0.0567	0.104	0.0593	–	–	–	–	0.047	–	–	0.0823	–	0.105	–
MGESLFKGPRDYNPISSSICHLTNESDGHTTSLYGIGFGPFIITNKHLFRRNNGTLVVQSLHGVFKVKDTTTLQQHLVDGRDMIIIRMPKDFPPFPQKLKFRYPQREERICLVTTNFQTKSMSSMVSDTSCTFPSGDGIFWKHWIQTKDGQCGSPLVSTRDGFIVGIHSASNFTNTNNYFTSVPKNFMELLTNQEAQQWVSGWRLNADSVLWGGHKVFMVKPEEPFQPVKEATQL [E103Y]	–	0.0678	–	0.0705	–	0.0668	0.0569	0.0594	0.0709	–	0.0673	0.0575	0.0713	–	–
MGESLFKGPRDYNPISSSICHLTNESDGHTTSLYGIGFGPFIITNKHLFRRNNGTLVVQSLHGVFKVKDTTTLQQHLVDGRDMIIIRMPKDFPPFPQKLKFREPQREERICLVTTNFQTLSMSSMVSDTSCTFPSGDGIFWKHWIQTKDGQCGSPLVSTRDGFIVGIHSASNFTNTNNYFTSVPKNFMELLTNQEAQQWVSGWRLNADSVLWGGHKVFMVKPEEPFQPVKEATQL [K120L]	–	–	–	–	–	0.0639	0.0768	0.0911	–	–	0.0828	0.0638	–	–	0.0575
MGESLFKGPRDYNPISSSICHLTNESDGHTTSLYGIGFGPFIITNKHLFRRNNGTLVVQSLHGVFKVKDTTTLQQHLVDGRDMIIIRMPKDFPPFPQKLKFREPQREERICLVTTNFQTKSMSSMVSDTSCTFPSGDGIFWKHWIQTKDGQCGSPLVSTRDGFIVGIHSASNFTNTNNYFTWVPKNFMELLTNQEAQQWVSGWRLNADSVLWGGHKVFMVKPEEPFQPVKEATQL [S182W]	–	0.0378	0.0725	–	–	–	0.0468	0.0554	0.0576	–	0.0533	0.0482	–	–	0.0433
MGESLFKGPRDYNPISSSICHLTNESDGHTTSLYMIGFGPFIITNKHLFRRNNGTLVVQSLHGVFKVKDTTTLQQHLVDGRDMIIIRMPKDFPPFPQKLKFREPQREERICLVTTNFQTKSMSSMVSDTSCTFPSGDGIFWKHWIQTKDGQCGSPLVSTRDGFIVGIHSASNFTNTNNYFTSVPKNFMELLTNQEAQQWVSGWRLNADSVLWGGHKVFMVKPEEPFQPVKEATQL [G35M]	–	–	–	0.0438	–	0.0896	–	0.0407	–	–	–	–	–	–	–
MGESLFKGPRDYNPISSSICHLTNESDGHTTSLYGIGFGPFIITNKHLFRRNNGTLVVQSLHGFFKVKDTTTLQQHLVDGRDMIIIRMPKDFPPFPQKLKFREPQREERICLVTTNFQTKSMSSMVSDTSCTFPSGDGIFWKHWIQTKDGQCGSPLVSTRDGFIVGIHSASNFTNTNNYFTSVPKNFMELLTNQEAQQWVSGWRLNADSVLWGGHKVFMVKPEEPFQPVKEATQL [V64F]	–	–	–	–	–	–	–	–	0.0773	–	–	–	–	–	–

From the supplement of paper PMC12217912
